Laboratory results as given in PubChem BioAssay AID304 (DTP/NCI, 2004).
Toxic doses and inconclusive results are not listed. A number of entries come with more than one value. This list holds those alone. The source may hold further records. Results that share an entry are repeated measurements (runs, samples, wells, individuals or studies).

Test system: Lymphosarcoma Mecca ip in C3AKF1 mice, survival T/C%
Assay: NCI In Vivo Anticancer Drug Screen. Data for tumor model Lymphosarcoma Mecca (intraperitoneal) in C3AKF1 (CHKRF1) mice
Conditions: endpoint: survival time, mean or median, schedule: Q01DX010 (ip), higher = longer survival
Procedure: The antitumor activity of compounds was measured in mice bearing transplantable tumors. Survival or tumor size were measured and the results are expressed as the measurement made in the treated group (T) divided by the measurement made in the vehicle treated control group (C). The tumor model used in this assay is Lymphosarcoma Mecca (intraperitoneal) in C3AKF1 (CHKRF1) mice

## NC(=O)N(CCCl)N=O
dose: 2.0 mg/kg/injection, vehicle: saline
  T/C: 113 % of control and 170 % of control

## CCOC(=O)NP(=O)(N1CC1)N1CC1
dose: 20.0 mg/kg/injection, vehicle: saline
  T/C: 111 % of control and 155 % of control

## O=C(O)c1[nH]c(=O)[nH]c(=O)c1F
dose: 5.0 mg/kg/injection, vehicle: saline
  T/C: 94 % of control and 150 % of control
dose: 10.0 mg/kg/injection, vehicle: saline
  T/C: 94 % of control and 150 % of control

## CC(=O)NC1=C(N2CC2)C(=O)C(NC(C)=O)=C(N2CC2)C1=O
dose: 0.25 mg/kg/injection, vehicle: saline
  T/C: 122 % of control and 166 % of control

## Nc1nc(N)c2nc(CNc3ccc(C(=O)NC(CCC(=O)O)C(=O)O)cc3)cnc2n1 (stereo unspecified)
dose: 0.05 mg/kg/injection, vehicle: other
  T/C: 124 % of control and 165 % of control
